PubChem BioAssay AID1721 (National Center for Advancing Translational Sciences (NCATS), 2009)
Screen size: about 290,000 compounds; about 1,100 (0.38%) were called active. Inconclusive results, whose numbers are uncertain, are shown with a selection of clear calls. Calls follow the shape of the dose curve; as a rule, active = well fitted inhibition curve with a large enough effect; inconclusive = small, poorly fitted or top-dose-only effect, or another doubt; inactive = no such curve, though single readings can be large or run the other way. A potency beside an inconclusive call is a rough fit, not a confirmed value.

What follows are compounds tested against Pyruvate kinase (Leishmania mexicana) (UniProt Q27686) (assay: qHTS Assay for Inhibitors of Leishmania Mexicana Pyruvate Kinase (LmPK)). Settings: purified LmPK, Kinase-Glo ATP luminescence, 1 h; activity change, negative = inhibition: at 57.5 µM (top of the series) unless noted.
Sequence of UniProt Q27686 (Q27686 whole entry, looked up): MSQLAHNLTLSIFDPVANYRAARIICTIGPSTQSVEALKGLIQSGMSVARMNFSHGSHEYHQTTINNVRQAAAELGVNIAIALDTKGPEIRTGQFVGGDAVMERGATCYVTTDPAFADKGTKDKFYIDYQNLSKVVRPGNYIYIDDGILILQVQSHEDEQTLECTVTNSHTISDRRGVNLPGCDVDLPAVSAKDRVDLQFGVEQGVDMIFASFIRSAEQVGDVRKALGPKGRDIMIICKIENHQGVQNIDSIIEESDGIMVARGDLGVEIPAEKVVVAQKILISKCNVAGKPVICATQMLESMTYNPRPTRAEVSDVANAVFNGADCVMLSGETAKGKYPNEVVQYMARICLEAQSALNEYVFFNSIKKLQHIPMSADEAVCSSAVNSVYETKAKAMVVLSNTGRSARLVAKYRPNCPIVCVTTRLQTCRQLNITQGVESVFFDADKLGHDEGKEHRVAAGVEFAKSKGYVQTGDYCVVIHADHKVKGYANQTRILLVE
Summary of the method: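 Purified LmPK (0.1 nM) converted ADP (0.1 mM) to ATP with PEP (0.5 mM) in imidazole buffer pH 7.2 with KCl and MgCl2, 1 h at room temperature. ATP was read by Kinase-Glo luminescence; data normalized to uninhibited and no-enzyme controls.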
% is scaled to controls: 0 for no effect and ±100 for the full control effect; potency is read from the fitted curve at half-maximal effect; tags tell the direction and shape of the fitted curve.

Row | Compound | Potency | activity change, negative = inhibition
1 | COc1cc(N=Nc2cccc(S(N)(=O)=O)c2)c2ccccc2c1N | inconclusive: 15.8 µM [falling, partial curve] | 
2 | CCN1C(=O)/C(=C2/C=Cc3cc(C)ccc3N2CC)N(C)C1=S | active: 14.1 µM | 
3 | COc1ccccc1C(=O)NCC(=O)NC(C)CCc1ccccc1 (centres undefined) | inconclusive: 28.2 µM [falling, partial curve] | 
4 | O=C1NC(=O)C(=Cc2ccc(Sc3ccccc3)o2)C(=O)N1 | inconclusive: 39.8 µM [falling, single point] | 
5 | CCCSc1ccc2nc(-c3ccccc3)cn2c1 | active: 6.31 µM | 
6 | Cc1cccc(NC(=O)c2onc3c2CCCC3)c1C | inconclusive: 14.1 µM [falling, partial curve] | 
7 | CCOc1cc(/C=N/Nc2nn3cnnc3c3ccccc23)ccc1O | active: 15.8 µM | 
8 | CC(NC(=O)Cn1cc(C(F)(F)F)ccc1=O)c1ccc(F)cc1 (centres undefined) |  | inactive: 0.456% [at 11.5 µM]
9 | Cc1ccc(C(=O)/C=C/C(=O)c2ccc(C)cc2)cc1 | active: 3.98 µM | 
10 | O=C(N/N=C/c1cccc(O)c1)c1ccccc1O | inconclusive: 35.5 µM [falling, single point] | 
11 | Nc1ccc(-c2nc3ccccc3[nH]2)cc1 | inconclusive: 17.8 µM [falling, partial curve] | 
12 | COc1ccccc1-c1nc(-c2ccncc2)no1 | inconclusive: 14.1 µM [falling, partial curve] | 
13 | CC(C)(C)NC(=O)NC(=O)CN1CCN(c2ccc(O)cc2)CC1 | active: 12.6 µM | 
14 | COc1ccc(NC2CCCCC2NS(=O)(=O)c2ccc(C)cc2)cc1 (centres undefined) | inconclusive: 25.1 µM [falling, single point] | 
15 | COc1ccc(C(=O)Nc2ccccc2C(=O)N/N=C/c2ccccc2OC)cc1 | inconclusive: 15.8 µM [falling, partial curve] | 
16 | O=C(COC(=O)c1ccccc1)c1ccc(Br)cc1 | inconclusive: 28.2 µM [falling, single point] | 
17 | Cc1cccc(-c2noc(-c3ccc4c(c3)OCO4)n2)c1 | inactive | 
18 | Cc1cc(OCC(=O)c2ccc(F)cc2)ccc1N1C(=O)CCC1=O | inactive | 
19 | S=c1[nH]nc(CNc2ccc(Cl)cc2)n1Cc1ccccc1 | inconclusive: 25.1 µM [falling, partial curve] | 
20 | COc1cc(C2CC(=O)c3c([nH]c(C(=O)OCCOC(C)C)c3C)C2)cc(OC)c1OC (centres undefined) | inactive | 
21 | C=CCN1CCc2cccc3c2[C@H]1Cc1ccc(O)c(O)c1-3 | active: 1.58 µM | 

Row | Compound | Potency | activity change, negative = inhibition
22 | COC(=O)[C@H](Cc1ccccc1)NC(=O)c1ccc2ccccc2n1 | inactive | 
23 | Cc1ccc(-n2c(=O)[nH]c3c(C(N)=O)nc(-c4ccc(C)o4)nc32)cc1 | inactive | 
24 | O=C(NCc1ccccn1)Nc1ccccc1 | inconclusive: 22.4 µM [falling, partial curve] | 
25 | O=C(CCCN1C(=O)/C(=C/c2ccccc2Cl)SC1=S)N1CCOCC1 | inconclusive: 14.1 µM [falling, partial curve] | 
26 | O=C(N/N=C/C=C/c1ccccc1)c1cccc(Br)c1 | inactive | 
27 | CC(C)(C)c1cc(-c2n[nH]c(=S)n2-c2ccccc2F)n[nH]1 | active: 14.1 µM | 
28 | CC(=O)Oc1oc(-c2ccccc2)nc1/C=N/c1ccccn1 | inconclusive: 35.5 µM [falling, single point] | 
29 | CCN1CCN(C(=O)C(C)Nc2ccc(OC)cc2OC)CC1 (centres undefined) | inactive | 
30 | CCOc1ccccc1Oc1cn[nH]c1-c1ccc(O)cc1O | inactive | 
31 | Cc1ccccc1-n1c(C)n[nH]c1=S | inconclusive: 28.2 µM [falling, single point] | 
32 | CC(=O)Nc1cccc(NC(=O)c2csc(C)c2)c1 | inactive | 
33 | Nc1c(-c2ccccc2)cnn1-c1ccccc1 | inconclusive: 39.8 µM [falling, single point] | 
34 | CSc1n[nH]c(=O)n1-c1ccc(Cl)cc1 | inconclusive: 39.8 µM [falling, single point] | 
35 | O=C(Nc1ccc(Cl)cc1)N1CCc2ccccc2C1 | inconclusive: 11.2 µM [falling, partial curve] | 
36 | COc1ccc(/C=N/Nc2nccnc2Cl)c(OC)c1 | active: 10 µM | 
37 | O=C(CC(Nc1ccccc1)C(=O)O)c1ccccc1 (centres undefined) | inconclusive: 25.1 µM [falling, partial curve] | 
38 | O=C(NCCO)c1ccc2c3n(nc2c1)-c1ccccc1CO3 | inconclusive: 25.1 µM [falling, partial curve] | 
39 | C(=N\Nc1nc2ccccc2[nH]1)/c1ccccn1 | inconclusive: 17.8 µM [falling, single point] | 
40 | COc1ccc(C(=O)Nc2ccccc2C(=O)O)cc1Cl | inconclusive: 28.2 µM [falling, single point] | 
41 | Cc1csc(NC(=O)CSc2nsc(SCC(=O)Nc3nc(C)cs3)c2C#N)n1 | inactive | 
42 | O=C(Nc1ccc(F)cc1F)c1ccc2c(c1)OCCO2 | inconclusive: 22.4 µM [falling, single point] | 

Row | Compound | Potency | activity change, negative = inhibition
43 | O=C(CCC1CCCCC1)Nc1ccccc1O | inconclusive: 20 µM [falling, partial curve] | 
44 | O=C(CSc1ncnc2ccccc12)c1ccc2c(c1)OCCO2 | inactive | 
45 | COc1ccc(-c2csc(Nc3ncccc3C)n2)cc1 | inconclusive: 20 µM [falling, partial curve] | 
46 | COc1ccc(CNC(=O)c2ccc(SC)cc2OC)cc1 | inactive | 
47 | Cc1cccc(N/C=C/C(=O)c2cccs2)c1C | active: 15.8 µM | 
48 | CCOc1ccc(OCc2cccc(C(=O)O)c2)cc1 | active: 6.31 µM | 
49 | O=C1c2sc3nc4n(c(=O)c3c2CCC1Br)CCCCC4 (centres undefined) | active: 28.2 µM | 
50 | CN1C(=O)/C(=C2/C=Cc3ccccc3N2CCCS(=O)(=O)O)SC1=S | inconclusive: 15.8 µM [falling, partial curve] | 
51 | O=C(N=Nc1c(O)[nH]c2ccccc12)c1ccco1 | active: 25.1 µM | 
52 | COc1ccc(CSc2nc3ccccc3[nH]2)cc1 | active: 15.8 µM | 
53 | Cc1csc(-c2coc3cc(O)cc(C)c3c2=O)n1 | inconclusive: 31.6 µM [falling, single point] | 
54 | Cc1ccc2nc(NC(=O)c3cccs3)sc2c1 | inconclusive: 28.2 µM [falling, single point] | 
55 | CCOC(=O)c1cc2ccc(OC(=O)c3ccco3)cc2oc1=O | inconclusive: 17.8 µM [falling, partial curve] | 
56 | O=C(/C=C\Nc1ccccn1)c1ccccc1 | active: 12.6 µM | 
57 | O=C(Nc1ccc(-c2nc3ccccc3[nH]2)cc1)c1ccco1 | inconclusive: 11.2 µM [falling, partial curve] | 
58 | COc1cc(NS(=O)(=O)c2ccc(NC(=S)NC(=O)c3sc4ccccc4c3Cl)cc2)ncn1 | inactive | 
59 | COc1ccc(-c2cc(-c3n[nH]c(=S)n3-c3cc(OC)ccc3OC)[nH]n2)cc1 | inconclusive: 14.1 µM [falling, partial curve] | 
60 | Cc1nc(NC(=O)c2cccs2)ccc1Br | inconclusive: 22.4 µM [falling, partial curve] | 
61 | N#Cc1c(N2CCSCC2)nsc1-c1ccccc1Cl | inactive | 
62 | C/C(=N\O)c1sc(-c2ccccc2)nc1C | inconclusive: 22.4 µM [falling, partial curve] | 
63 | COc1cccc(-c2n[nH]c(=S)n2Cc2ccco2)c1OC | inconclusive: 12.6 µM [falling, partial curve] | 

Row | Compound | Potency | activity change, negative = inhibition
64 | O=C(c1cccs1)c1ccc(-c2cccs2)s1 | inconclusive: 12.6 µM [falling, partial curve] | 
65 | CC(C)Oc1ccc(CSc2ncn[nH]2)cc1 | inactive | 
66 | CN(C)CCNC(=O)c1cc(Sc2ccc(F)cc2)nc2ccccc12 | inactive | 
67 | CCc1ccc(NC(=O)C(=O)NCCOc2ccccc2Cl)cc1 | inactive | 
68 | CCCCn1c(-c2csc(C(C)C)c2)n[nH]c1=S | inconclusive: 31.6 µM [falling, partial curve] | 
69 | Cn1cccc1C(=O)/C(C#N)=C/c1ccc(F)cc1 | inactive | 
70 | Cc1cccc(/C=C2\Oc3cc(OS(C)(=O)=O)ccc3C2=O)c1 | inactive | 
71 | Fc1cccc(F)c1/C=N/NC(=S)Nc1cccnc1 | inactive | 
72 | Cc1ccc(-n2c([C@@H]3C[C@H]3c3ccccc3)n[nH]c2=S)cc1 | inconclusive: 12.6 µM [falling, partial curve] | 
73 | O=C(N=c1nc2ccccn2s1)c1ccccc1 | active: 3.55 µM | 
74 | CC[n+]1c(/C=C/C=C/c2ccc(N(C)C)cc2)sc2ccccc21 | active: 15.8 µM | 
75 | CN(C(=O)c1cc2sccc2n1C)C1CCCCC1 | inactive | 
76 | COc1ccccc1Nc1nc(-c2cccs2)cs1 | inactive | 
77 | CC(C)Oc1ccc(CCc2n[nH]c(=S)n2Cc2ccccc2)cc1 | inconclusive: 31.6 µM [falling, single point] | 
78 | c1ccc(Oc2cc(-n3cccn3)ncn2)cc1 | inconclusive: 25.1 µM [falling, single point] | 
79 | S=c1[nH]nc(-c2ccc(Br)cc2)n1-c1ccc2c(c1)OCCO2 | inconclusive: 7.08 µM [falling, partial curve] | 
80 | COc1cccc(NC(=O)c2cnsn2)c1 | inconclusive: 25.1 µM [falling, single point] | 
81 | Cc1cc(C(=O)COC(=O)c2cccnc2Cl)c(C)n1CC1CCCO1 (centres undefined) | active: 25.1 µM | 
82 | Oc1ccccc1/C=N/n1c(-c2cccs2)n[nH]c1=S | inconclusive: 39.8 µM [falling, single point] | 
83 | Nc1ccc(-c2nc3cc(N)ccc3s2)cc1 | inconclusive: 20 µM [falling, partial curve] | 
84 | CCc1ccc(OCc2nc(-c3ccccn3)no2)c(Br)c1 | inconclusive: 28.2 µM [falling, single point] | 
